# Reference: PubChem BioAssay AID624417 (National Center for Advancing Translational Sciences (NCATS), 2012)
# Screen size: about 410,000 compounds; about 6,400 (1.6%) were called active. Inconclusive results, whose numbers are uncertain, are shown with a selection of clear calls. Calls come from the whole dose curve; as a rule, active = well fitted inhibition curve with a large enough effect; inconclusive = small, poorly fitted or top-dose-only effect; inactive = no such curve, though single readings can be large or run the other way. No potency is given beside an inconclusive call; the fits are too rough.
# Target: Glucagon-like peptide 1 receptor (Homo sapiens) (UniProt P43220)
# Experiment: qHTS of GLP-1 Receptor Inverse Agonists (Inhibition Mode); note: nearly all actives have a fitted effect of over 55% in size
# Settings: HEK293 GLP-1R CRE-luciferase, luminescence, 24 h, GLP-1R form is constitutively active; activity change, negative = inhibition: at 38.3 µM (top of the series) unless noted
# In short: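 GLP-1R inverse agonism mode: basal reporter luminescence in engineered HEK293 cells measured after one day of compound exposure at 37 deg C, with a 12 min room-temperature detection step.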
# % is set by controls: 0 for no effect and ±100 for the full control effect; potency is the fitted concentration of half-maximal effect; tags give direction and shape of the fitted curve.
# Chain of UniProt P43220 (P43220 whole entry, looked up): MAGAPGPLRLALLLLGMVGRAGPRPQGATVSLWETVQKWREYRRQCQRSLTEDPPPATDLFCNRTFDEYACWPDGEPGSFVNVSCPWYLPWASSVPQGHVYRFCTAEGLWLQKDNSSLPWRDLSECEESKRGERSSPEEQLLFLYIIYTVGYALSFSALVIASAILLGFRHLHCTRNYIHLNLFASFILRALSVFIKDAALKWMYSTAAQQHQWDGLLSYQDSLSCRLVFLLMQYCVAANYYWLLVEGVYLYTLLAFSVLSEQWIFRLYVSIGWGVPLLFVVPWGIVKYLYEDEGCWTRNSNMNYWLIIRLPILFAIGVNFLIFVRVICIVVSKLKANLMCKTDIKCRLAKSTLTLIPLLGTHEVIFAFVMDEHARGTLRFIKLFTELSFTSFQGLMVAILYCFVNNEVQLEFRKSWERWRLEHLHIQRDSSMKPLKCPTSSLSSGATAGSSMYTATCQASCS
Structure (SMILES),Potency,"activity change, negative = inhibition"
C(=N\N1CCN(Cc2cccc3ccccc23)CC1)/c1ccco1,"inconclusive [inhibitor, partial curve, poor fit]",–
COc1cc(C(=O)N/N=C/c2coc3ccccc3c2=O)cc(OC)c1OC,"inconclusive [inhibitor, partial curve]",–
C/C(=N\NC(=O)c1cc(C2CC2)nc2ccccc12)c1ccc(O)cc1O,"inconclusive [inhibitor, full curve, poor fit]",–
CCN(CCO)c1ccc(N=Nc2cc(C)[nH]n2)cc1,"inconclusive [inhibitor, full curve, poor fit]",–
Cc1ccc(C(=O)Cn2nnc(-c3ccccc3-n3cnnn3)n2)cc1,inactive,–
COc1ccc(-c2cccc([C@H]3[C@@H]4C=CCC[C@@]4(C)C(=O)N3Cc3ccccc3)c2)cc1,"inconclusive [inhibitor, partial curve, poor fit]",–
O=[N+]([O-])c1ccc2[nH]cc(S(=O)(=O)N3CCN(c4cccc(Cl)c4)CC3)c2c1,"inconclusive [inhibitor, single point]",–
Cc1cccc(NC(=O)c2ccc(OCC3CCCO3)cc2)c1C (stereo not drawn),inactive,–
COc1ccc(Cl)cc1NC(=O)C1CC(c2c(F)cccc2Cl)=NO1 (stereo not drawn),"inconclusive [inhibitor, partial curve, poor fit]",–
O=C(CCNC(=O)c1ccc([N+](=O)[O-])cc1)NCCc1ccc(Cl)cc1,"inconclusive [inhibitor, single point]",–
CCOC(=O)c1nn(C)c(C)c1Cl,inactive,–
COc1ccc(N2C(=O)c3ccccc3NC2c2ccccc2O)cc1 (stereo not drawn),"inconclusive [inhibitor, single point]",–
Cc1nn(Cc2nnc(SCC(=O)Nc3cccc(C(F)(F)F)c3)n2C)c(C)c1[N+](=O)[O-],"inconclusive [inhibitor, single point]",–
O=C(CN1c2cccc3cccc(c23)S1(=O)=O)Nc1ccc(F)c(F)c1F,"inconclusive [inhibitor, partial curve, poor fit]",–
CC(=O)NN1C(=O)/C(=C\c2ccc(Br)o2)SC1=S,inactive,–
Cc1cc(C(=O)OC(C(=O)Nc2cccc(C(F)(F)F)c2)c2ccccc2)c(C)o1 (stereo not drawn),"inconclusive [inhibitor, partial curve, poor fit]",–
COc1ccc(CC(=O)NC(c2ccccc2)c2ccc(C)cc2)c(OC)c1 (stereo not drawn),active: 8.91 µM,–
COc1ccc(N2CCN(C(c3ccccc3)c3nnc(-c4ccccc4Cl)o3)CC2)cc1 (stereo not drawn),"inconclusive [inhibitor, single point]",–
Cc1cccc(NC(=O)CSc2nc3c(oc4ccccc43)c(=O)n2C(C)C)c1,"inconclusive [inhibitor, single point]",–
Cn1cnc([N+](=O)[O-])c1S(=O)(=O)c1cccc(Cl)c1,"inconclusive [inhibitor, single point]",–
COCCNC(=O)CCCn1c(SCC(=O)Nc2cccc(C)c2)nc2c(sc3ccccc32)c1=O,inactive,–

Structure (SMILES),Potency,"activity change, negative = inhibition"
COc1ccc(N2CCN(c3nc4c(c(=O)n(C)c(=O)n4C)n3Cc3ccccc3)CC2)cc1,"inconclusive [inhibitor, single point]",–
CCc1ccc(CNC(=O)c2nn(C)c3c2CS(=O)(=O)c2ccccc2-3)cc1,"inconclusive [inhibitor, single point]",–
COc1cccc(-c2cc(C(=O)N3CCOCC3)no2)c1,"inconclusive [inhibitor, partial curve, poor fit]",–
COCCn1c(SCC(=O)N2CCC(C)CC2)nc2ccccc2c1=O,inactive,–
CC1=C(C(=O)NCCc2ccc(Cl)cc2)C2(CCCCC2)OC1=O,inactive,–
CCCCc1cc(=O)oc2cc(C)cc(OCC(=O)N3CCC(C(=O)O)(c4ccccc4)CC3)c12,inactive,–
O=C(O)c1cccc(NC(=O)c2cn(-c3ccccc3)nc2-c2cccc(Br)c2)c1,"inconclusive [inhibitor, single point]",–
O=Cc1c(Sc2ccccn2)nc2ccccn2c1=O,"inconclusive [inhibitor, single point]",–
COc1cccc(CNC(=O)C(=O)NCC2OCCCN2S(=O)(=O)c2cc(C)ccc2C)c1 (stereo not drawn),"inconclusive [inhibitor, single point]",–
COCCc1ccc(OC2(C)CCN(Cc3ccc(OC)c4ccccc34)C2)cc1 (stereo not drawn),"inconclusive [inhibitor, partial curve]",–
CC(C)(C)OC(=O)N(Cc1ccccc1)Cc1ccccc1OCc1cccc(NC(=O)c2ccccc2)c1,"inconclusive [inhibitor, partial curve, poor fit]",–
CCC(C)c1ccccc1N1CC(C(=O)N2CCN(c3ccccc3)CC2)CC1=O (stereo not drawn),"inconclusive [inhibitor, partial curve, poor fit]",–
CCOC(=O)CCCCCC(=O)Nc1ccc2c(c1)CC(=O)N([C@@H](C)CO)C[C@@H](C)[C@@H](CN(C)C(=O)Nc1ccc(C(F)(F)F)cc1)O2,"inconclusive [inhibitor, single point]",–
Brc1csc(/C=N/Nc2nc3ccccc3s2)c1,"inconclusive [inhibitor, partial curve, poor fit]",–
Oc1ccc(N2CCN(c3ccnc4cc(Cl)ccc34)CC2)cc1,"inconclusive [inhibitor, partial curve, poor fit]",–
Cn1c(=O)cc(N2CCN(C(=O)c3ccco3)CC2)[nH]c1=O,inactive,–
CN(C)CCCNc1ncnc2oc(-c3ccccc3)c(-c3ccccc3)c12,–,inconclusive: -95.2% [inhibitor]
Cc1ccc(-c2nc(CS(=O)CC(=O)NCCN3CCCCC3C)c(C)o2)cc1 (stereo not drawn),"inconclusive [inhibitor, single point]",–
CC(C)OCCCN1C(=O)c2[nH]nc(-c3ccccc3O)c2C1c1cccc(Cl)c1 (stereo not drawn),"inconclusive [inhibitor, partial curve, poor fit]",–
COc1ccc(-c2cnc(N)nc2-c2ccc(OC)cc2O)cc1,"inconclusive [inhibitor, single point]",–
Cc1cc(C)cc(N2C(N)=NC(N)=NC2c2ccccc2F)c1 (stereo not drawn),"inconclusive [inhibitor, single point]",–

Structure (SMILES),Potency,"activity change, negative = inhibition"
S=C(NCCN(C1CCCCC1)C1CCCC1)Nc1cccc(Cl)c1,"inconclusive [inhibitor, single point]",–
O=C(O)c1cc(S(=O)(=O)N2CCN(C(c3ccccc3)c3ccccc3)CC2)ccc1Cl,"inconclusive [inhibitor, partial curve, poor fit]",–
N#Cc1cc2c(nc1SCc1ccccc1)CCCCC2,"inconclusive [inhibitor, single point]",–
Cc1ccc2[nH]c3c(=O)n(CC(=O)N4CC(C)CC(C)C4)ncc3c2c1 (stereo not drawn),"inconclusive [inhibitor, partial curve, poor fit]",–
NC(=O)CC(NC(=O)Cc1ccc(Cl)cc1)c1ccc(NCCOc2ccccc2)c([N+](=O)[O-])c1 (stereo not drawn),"inconclusive [inhibitor, single point]",–
Cc1ccc2oc(=O)n(CCNC(=O)Nc3ccccc3Cl)c2c1,inactive,–
O=C(COc1ccc2cc(Br)ccc2c1)N1CCCC1,"inconclusive [inhibitor, partial curve]",–
O=C(OCc1ccccc1)/C(=C/c1ccccc1Cl)NC(=O)c1ccco1,"inconclusive [inhibitor, partial curve, poor fit]",–
Cc1ccc2c(CC(=O)Nc3cc(C(F)(F)F)ccc3Cl)coc2c1C,inactive,–
COc1cc(NC(=O)CCCc2c[nH]c3ccccc23)cc(OC)c1,"inconclusive [inhibitor, partial curve, poor fit]",–
Cc1cc(C2(c3ccc(O)c(C)c3)C(=O)N(C)c3ccc(Br)cc32)ccc1O,"inconclusive [inhibitor, partial curve, poor fit]",–
CCN1CCN(C(=O)c2cc3sccc3n2CC(=O)c2ccccc2)CC1,inactive,–
O=C(Nc1ccccc1)OCCOc1cccc(Br)c1,"inconclusive [inhibitor, single point]",–
CC1CN(CC(O)COc2ccc(C(C)C)cc2)CC(C)O1 (stereo not drawn),"inconclusive [inhibitor, partial curve, poor fit]",–
O=C(CCn1c(=O)c2ccccc2n(Cc2cccc([N+](=O)[O-])c2)c1=O)N1CCc2ccccc2C1,inactive,–
CSCC[C@@H](C(=O)NCCCCCCCCCCC(=O)N1CCN(C(=O)OC(C)(C)C)CC1)n1cc(CCO)nn1,"inconclusive [inhibitor, single point]",–
S=C(NCCc1ccccc1)N1CCN(Cc2ccccc2)CC1,"inconclusive [inhibitor, single point]",–
NC(N)=NCC(O)CN(c1ccccc1)c1ccccc1 (stereo not drawn),"inconclusive [inhibitor, partial curve, poor fit]",–
CCc1cccc(CC)c1NC(=O)CO/N=C(\C)c1cccs1,"inconclusive [inhibitor, single point]",–
O=C(/C=C/c1ccc2c(c1)OCO2)Nc1cccnc1,active: 10 µM,–
CC[C@@H](NCCCn1ccc(NC(=O)OCc2ccccc2)nc1=O)c1ccccc1,"inconclusive [inhibitor, single point]",–
